Measured values as given in the supplement of paper PMC12217912.
The list shows a part of the results. Sequences were assembled here from the parent chain. Values near 0.05 are background.

B1: TEV protease; numbered along this chain (parent)
chain: MGESLFKGPRDYNPISSSICHLTNESDGHTTSLYGIGFGPFIITNKHLFRRNNGTLVVQSLHGVFKVKDTTTLQQHLVDGRDMIIIRMPKDFPPFPQKLKFREPQREERICLVTTNFQTKSMSSMVSDTSCTFPSGDGIFWKHWIQTKDGQCGSPLVSTRDGFIVGIHSASNFTNTNNYFTSVPKNFMELLTNQEAQQWVSGWRLNADSVLWGGHKVFMVKPEEPFQPVKEATQL

Variants of: B1
Experiment: raw area under fraction-flipped curve 0-4 h after induction (AUC4h, not background-subtracted), DNA-recorder readout of cleavage of the substrate (dimensionless); higher = more cleavage of the substrate by the protease variant
Details: temperature: 34 °C; time window: 0-4 h after rhamnose induction
Protocol: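 In vivo DNA recorder in E. coli TOP10(DE3) ΔrhaA at 34 °C. Each TEVp single-site mutant (parent TEVp 0) is paired with a single-site variant of the 7-mer TEVs (canonical ENLYFQ|S). The substrate sits between flexible linkers in a Bxb1-sfGFP-TEVs-SsrA fusion, so cleavage stabilises Bxb1 and speeds flipping of a recombination array, read by NGS. The value is the raw area under the fraction-flipped curve over 0-4 h after rhamnose induction (AUC4h), with ≥20 reads per time point. It is not background-subtracted; inactive controls average about 0.047.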
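Also: Bxb1 expression induced with 0.2% (w/v) L-rhamnose at OD600 near 0.5, cultures sampled hourly, flipped fraction per protease–substrate barcode pair counted by paired-end Illumina sequencing.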

Variant | area with substrate ENLAFQS | area with substrate ENLCFQS | area with substrate ENLDFQS | area with substrate ENLEFQS | area with substrate ENLFFQS | area with substrate ENLGFQS | area with substrate ENLHFQS | area with substrate ENLIFQS | area with substrate ENLKFQS | area with substrate ENLLFQS | area with substrate ENLMFQS | area with substrate ENLNFQS | area with substrate ENLPFQS | area with substrate ENLQFQS | area with substrate ENLRFQS | area with substrate ENLSFQS | area with substrate ENLVFQS | area with substrate ENLWFQS | area with substrate ENLTFQS
MGESLFKGPRDYNPISSSICHLTNESDGHTTSLYGIGFGPFIITNKHLFRRNNGTLVVQCLHGVFKVKDTTTLQQHLVDGRDMIIIRMPKDFPPFPQKLKFREPQREERICLVTTNFQTKSMSSMVSDTSCTFPSGDGIFWKHWIQTKDGQCGSPLVSTRDGFIVGIHSASNFTNTNNYFTSVPKNFMELLTNQEAQQWVSGWRLNADSVLWGGHKVFMVKPEEPFQPVKEATQL [S60C] | 0.0725 | 0.0646 | 0.0625 | 0.0661 | 0.0804 | 0.0747 | 0.0588 | 0.0905 | 0.0739 | 0.0585 | 0.0879 | 0.0584 | 0.0678 | 0.0721 | 0.064 | 0.0731 | 0.0637 | 0.0713 | 
MGESLFKGPRDYNPISSSICHLTNESDGHTTSLYGIGFGPFIITNKHLFRRNNGTLVVGSLHGVFKVKDTTTLQQHLVDGRDMIIIRMPKDFPPFPQKLKFREPQREERICLVTTNFQTKSMSSMVSDTSCTFPSGDGIFWKHWIQTKDGQCGSPLVSTRDGFIVGIHSASNFTNTNNYFTSVPKNFMELLTNQEAQQWVSGWRLNADSVLWGGHKVFMVKPEEPFQPVKEATQL [Q59G] | 0.068 | 0.0599 | 0.0523 | 0.0479 |  |  | 0.0678 | 0.0844 | 0.0849 |  |  | 0.0636 | 0.0371 |  |  |  | 0.0813 | 0.0547 | 
MGESLFKGPRDYNPISSSICHLTNESDGHTTSLYGIGFGPFIITNKHLFRRNNGCLVVQSLHGVFKVKDTTTLQQHLVDGRDMIIIRMPKDFPPFPQKLKFREPQREERICLVTTNFQTKSMSSMVSDTSCTFPSGDGIFWKHWIQTKDGQCGSPLVSTRDGFIVGIHSASNFTNTNNYFTSVPKNFMELLTNQEAQQWVSGWRLNADSVLWGGHKVFMVKPEEPFQPVKEATQL [T55C] | 0.0684 |  | 0.0714 | 0.0638 | 0.0707 |  | 0.0704 | 0.0892 | 0.0662 |  | 0.0908 | 0.0538 | 0.0583 | 0.0573 |  | 0.0597 | 0.0785 | 0.0738 | 
MGESLFKGPRDYNPISSSICHLTNESDGHTTSLYGIGFGPFIITNKHLFRRNNCTLVVQSLHGVFKVKDTTTLQQHLVDGRDMIIIRMPKDFPPFPQKLKFREPQREERICLVTTNFQTKSMSSMVSDTSCTFPSGDGIFWKHWIQTKDGQCGSPLVSTRDGFIVGIHSASNFTNTNNYFTSVPKNFMELLTNQEAQQWVSGWRLNADSVLWGGHKVFMVKPEEPFQPVKEATQL [G54C] | 0.0336 |  | 0.0633 | 0.0429 | 0.0693 | 0.0683 | 0.0706 |  | 0.0552 |  | 0.0733 | 0.0545 | 0.0562 | 0.059 |  | 0.0593 | 0.0725 | 0.0528 | 
MGESLFKGPRDYNPISSSICHLTNESDGHTTSLYGIGFGPFIITNKHLFRRNNKTLVVQSLHGVFKVKDTTTLQQHLVDGRDMIIIRMPKDFPPFPQKLKFREPQREERICLVTTNFQTKSMSSMVSDTSCTFPSGDGIFWKHWIQTKDGQCGSPLVSTRDGFIVGIHSASNFTNTNNYFTSVPKNFMELLTNQEAQQWVSGWRLNADSVLWGGHKVFMVKPEEPFQPVKEATQL [G54K] | 0.0623 | 0.0489 | 0.0615 | 0.0674 | 0.0612 |  | 0.0976 | 0.0647 | 0.06 |  |  | 0.0491 | 0.0627 | 0.0547 |  |  |  |  | 
MGESLFKGPRDYNPISSSICHLTNESDGHTTSLYGIGFGPFIITNKHLFRRNNGTLVVQSLHGVFDVKDTTTLQQHLVDGRDMIIIRMPKDFPPFPQKLKFREPQREERICLVTTNFQTKSMSSMVSDTSCTFPSGDGIFWKHWIQTKDGQCGSPLVSTRDGFIVGIHSASNFTNTNNYFTSVPKNFMELLTNQEAQQWVSGWRLNADSVLWGGHKVFMVKPEEPFQPVKEATQL [K66D] | 0.0763 | 0.0577 | 0.048 |  | 0.0803 | 0.0585 | 0.0702 |  | 0.0701 | 0.0715 | 0.0676 | 0.0586 |  | 0.0414 |  | 0.0712 |  | 0.0637 | 
MGESLFKGPRDYNPISSSICHLTNESDGHTTSLYGIGFGPFIITNKHLFRRNNGTLVVQSLHRVFKVKDTTTLQQHLVDGRDMIIIRMPKDFPPFPQKLKFREPQREERICLVTTNFQTKSMSSMVSDTSCTFPSGDGIFWKHWIQTKDGQCGSPLVSTRDGFIVGIHSASNFTNTNNYFTSVPKNFMELLTNQEAQQWVSGWRLNADSVLWGGHKVFMVKPEEPFQPVKEATQL [G63R] | 0.0628 |  | 0.0683 | 0.0658 | 0.0682 |  | 0.0373 | 0.0725 | 0.0676 |  |  | 0.0733 |  |  | 0.0724 | 0.0737 |  |  | 
MGESLFKGPRDYNPISSSICHLTNESDGHTTSLYGIGFGPFIITNKHLFRRNNGTLVVQSLHTVFKVKDTTTLQQHLVDGRDMIIIRMPKDFPPFPQKLKFREPQREERICLVTTNFQTKSMSSMVSDTSCTFPSGDGIFWKHWIQTKDGQCGSPLVSTRDGFIVGIHSASNFTNTNNYFTSVPKNFMELLTNQEAQQWVSGWRLNADSVLWGGHKVFMVKPEEPFQPVKEATQL [G63T] | 0.0712 | 0.0675 | 0.0641 | 0.0586 | 0.0831 | 0.0775 | 0.064 | 0.103 | 0.0712 |  | 0.0628 | 0.0622 | 0.0703 |  |  |  |  | 0.0646 | 
MGESLFKGPRDYNPISSSICHLTNESDGHTTSLYGIGFGPFIITNKHLFRRNNGTLVVQSLHLVFKVKDTTTLQQHLVDGRDMIIIRMPKDFPPFPQKLKFREPQREERICLVTTNFQTKSMSSMVSDTSCTFPSGDGIFWKHWIQTKDGQCGSPLVSTRDGFIVGIHSASNFTNTNNYFTSVPKNFMELLTNQEAQQWVSGWRLNADSVLWGGHKVFMVKPEEPFQPVKEATQL [G63L] | 0.0582 | 0.0821 |  | 0.104 | 0.0756 | 0.0855 | 0.0675 | 0.0637 | 0.0765 |  | 0.0644 | 0.0585 |  | 0.0574 | 0.0634 | 0.0564 | 0.0778 | 0.0587 | 0.0417
